The text below walks through data of publication PMC3258218, “Assembly and proteolytic processing of mycobacterial ClpP1 and ClpP2” (BMC Biochemistry, 2011).

This series concerns the molecule itself. The experiment in a line: SEC-MALS; SEC-TDA: Superdex 200 with triple detector array (static light scattering at 7° and 90°, refractometer, photometer, viscometer), 25 mM Tris-HCl pH 7.5, 150 mM KCl, 1 mM β-mercaptoethanol, 20°C; 200 μg loaded. A general note: Size exclusion chromatography separates by hydrodynamic size, large species first.

Several values for one entry are separate records, joined by “and”; a condition that tells them apart may be missing. Identical values can stand only once.

B1: Mycobacterium tuberculosis ClpP1 with a C-terminal (His)6 tag (enzyme)
chain: not shown
notes: ClpP1 (Rv2461c), Mycobacterium tuberculosis H37Rv, 200 amino acids; also called ClpP1(His)6; MTB ClpP1; not shown: His6, C-terminal, kept
In the case of B1, the “stoichiometry N” value is 1 and 3.

As a reminder, the stoichiometry N is the number of molecules, sites or subunits per partner or assembly.
